# Reference: PubChem BioAssay AID686978 (National Center for Advancing Translational Sciences (NCATS), 2013)
# “And” between values parts separate entries of the source, which are not always exact repeats. Identical values can stand only once. The campaign covered roughly 420,000 compounds. About 64,000 (15%) were called active. The inconclusive results got no clear call from the source; some entries with a clear call stand among them for comparison. Calls follow the shape of the dose curve; as a rule, active = well fitted inhibition curve with a large enough effect; inconclusive = small, poorly fitted or top-dose-only effect; inactive = flat fitted curve, though single readings scatter. Potencies of inconclusive entries are doubtful fits and often do not repeat.
# Test: qHTS for Inhibitors of human tyrosyl-DNA phosphodiesterase 1 (TDP1): qHTS in cells in absence of CPT; also: nearly all actives have a fitted effect of over 55% in size
# Settings: DT40 Tdp1-/- hTDP1 cells, no CPT, ATP luminescence, 48 h; activity change, negative = growth inhibition: at 46.2 µM (top of the series) unless noted
# Procedure, shortened: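 Compound effects on proliferation are scored in DT40 Tdp1-/-;hTDP1 cells in the absence of CPT. ATP levels (CellTiter-Glo luminescence) are recorded after a ≥48 hr, 37 °C incubation.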
# % is scaled to controls: 0 for no effect and ±100 for the full control effect; potency is read from the fitted curve at half-maximal effect; tags tell the direction and shape of the fitted curve.
SMILES,Potency,"activity change, negative = growth inhibition"
CCCCc1ncc(CN2CCCC(C(=O)c3ccc(SC)cc3)C2)[nH]1 (configuration not stated),"inconclusive: 14.6 µM [inhibitor, partial curve]",–
CCN(CC)C(=O)c1ccc(NC(=S)NC(=O)CCc2ccccc2)cc1,"inconclusive: 2.91 µM [inhibitor, single point]",–
Cc1ccc2cc(C=C(C#N)C#N)c(Cl)nc2c1,active: 2.91 µM,–
CNC(C(=O)c1ccccc1)C(OC)c1cccc([N+](=O)[O-])c1 (configuration not stated),–,inactive: -20.6%
CC(Cc1ccccc1)[n+]1cc(/N=C(\N)[O-])on1 (configuration not stated),–,inactive: -8.51%
O=c1[nH]c(=O)n(CCc2ccccc2)c(O)c1C=NCCCn1ccnc1,"inconclusive: 16.4 µM [inhibitor, single point]",–
Cc1ccc(S(=O)(=O)N2CCN(C(=O)COC(=O)Cc3ccccc3)CC2)c(C)c1,–,inconclusive: -36.7% [inhibitor]
Cc1c(C=O)c2ccccc2n1Cc1ccccc1,–,inactive: -26.1%
C[C@@H]1CN([C@H](C)CO)C(=O)c2c(c3ccccc3n2C)-c2ccccc2CO[C@H]1CN(C)Cc1ccc(-c2ccccc2)cc1,active: 20.6 µM,–
Cc1cccc(-n2c(/C=C\c3cccc(Br)c3)nc3ccccc3c2=O)c1,"inconclusive: 20.6 µM [inhibitor, single point]",–
CSc1ccccc1NP1(=O)OCC(C)([N+](=O)[O-])CO1 (configuration not stated),"inconclusive: 5.8 µM [inhibitor, full curve, poor fit]",–
COc1cc(O)cc2c1C(=O)OC(C)CCCC(=O)CCC/C=C\2 (configuration not stated),"inconclusive: 14.6 µM [inhibitor, partial curve]",–
CC(C)(O)C1O[C@H]2CC[C@@]3(C)[C@@](O)(CC[C@H]4Cc5c([nH]c6ccccc56)[C@@]43C)C2=CC1=O (some centres not stated),active: 10.3 µM and active: 18.4 µM and active: 24.3 µM,–
Cc1ccc(OC(=O)N(C)C[C@H]2OCc3cnnn3CCCC(=O)N([C@@H](C)CO)C[C@H]2C)cc1,"inconclusive: 6.51 µM [inhibitor, full curve]",–
CCCN1CCC(NC2CCC(O)CC2)CC1 (configuration not stated),–,inactive: 10.2%
C[C@H]1COC(=O)[C@@H](Cc2ccc(F)cc2)CC/C=C/C[C@H](CC(=O)N(CCO)Cc2ccccc2)C(=O)N1,active: 16.4 µM,–
C=COCCn1c(C)c(C(C)=O)c2cc(O)ccc21,"inconclusive: 18.4 µM [inhibitor, partial curve, poor fit]",–
O=[N+]([O-])c1ccccc1,–,inactive: 9.74%
Cn1c(O)c(C=Nc2ccccc2Sc2ccccc2)c(=O)n(C)c1=O,–,inconclusive: -30.1% [inhibitor]
COC(=O)C1=C(c2c(C)noc2C)C[C@@H]2CC[C@H]1N2C(=O)N1CCOCC1,–,inactive: 3.46%
CCCCn1c(N)c(C(=O)NCCN2CCOCC2)c2nc3ccccc3nc21,active: 23.1 µM,–
Cc1c(C(=O)N2CCC3(CC2)OCCO3)sc2ncnc(N3CCc4ccccc4C3)c12,active: 23.1 µM,–
N#CCCn1cc(C(=O)O)c(-c2cccc([N+](=O)[O-])c2)n1,–,inactive: -20.6%
Cc1ccnc(-n2c(C)cc(/C=C3\C(=O)NC(=S)N(C)C3=O)c2C)c1,"inconclusive: 23.1 µM [inhibitor, partial curve, poor fit]",–

SMILES,Potency,"activity change, negative = growth inhibition"
COc1ccc(-c2cc(=NCCCCCC(=O)O)c3cc(C)ccc3o2)cc1,"inconclusive: 18.4 µM [inhibitor, single point] and inconclusive: 29.1 µM [inhibitor, single point]",–
Cc1cccc(-n2c(C)nc3ccccc3c2=O)n1,–,inactive: -2.19%
CCOC(=O)[C@]12Cc3ccccc3[C@H]1N(Cc1ccccc1)C(=O)c1cc(OC)ccc12,active: 18.4 µM,–
O=C(C1CCCN(S(=O)(=O)c2cccc3nsnc23)C1)N1CCC2(CC1)OCCO2 (configuration not stated),–,inactive: -7.6%
CP(=O)(Nc1ccc(Cl)cc1)c1nc2c(s1)CCCC2 (configuration not stated),"inconclusive: 29.1 µM [inhibitor, single point]",–
CC(=O)Nc1ccccc1C(=O)OCc1ccc(F)cc1,"inconclusive: 25.9 µM [inhibitor, single point]",–
CCN1C(=O)NC(=O)/C(=C\c2cn(CC(=O)N3CCCCC3C)c3ccccc23)C1=O (configuration not stated),–,inactive: 2.3%
CCCC1=Nc2cc(C(=O)NCCc3ccc(OC)cc3OC)ccc2Sc2ccccc21,"inconclusive: 14.6 µM [inhibitor, partial curve, poor fit]",–
Oc1ccccc1/C=N/[n+]1ccccc1,active: 18.4 µM,–
COc1ccc(CCNC(=O)c2ccc3c(c2)N(Cc2cccc(Cl)c2)C(=O)CS3)cc1OC,active: 23.1 µM,–
CCCCC(C)C(OC(=O)CC(CC(=O)O)C(=O)O)C(CC(C)CC(O)CCCCC(O)CC(O)C(C)N)OC(=O)CC(CC(=O)O)C(=O)O (configuration not stated),"inconclusive: 23.1 µM [inhibitor, single point]",–
O=C1NCN(c2ccccc2)C12CCN(CCCOc1ccc(F)cc1)CC2,active: 23.1 µM,–
CC(C)(C)C(=O)c1cn(Cc2ccccc2)c2ccccc12,"inconclusive: 20.6 µM [inhibitor, single point]",–
COc1ccc(-n2nnnc2C(CCc2ccccc2)N2CCC(n3c(=O)[nH]c4ccccc43)CC2)cc1 (configuration not stated),active: 23.1 µM,–
Cc1ccc2[nH]c(=S)n(-c3cccnc3)c(=O)c2c1,–,inactive: 21.9%
Cc1ccc(C(O)P(=O)(OC2CCCCC2)OC2CCCCC2)cc1 (configuration not stated),"inconclusive: 18.4 µM [inhibitor, single point]",–
COc1cccc(-n2c(=S)[nH]c3ccccc3c2=O)c1,–,inconclusive: -36.4% [inhibitor]
CCc1nc2ccc(N3CCN(C)CC3)cc2nc1CC,–,inactive: -2.69%
CN1C2CCC1CC(OC(c1ccc(F)cc1)c1ccc(F)cc1)C2 (configuration not stated),active: 7.31 µM,–
O=[N+]([O-])c1ccc(NCCCN2CCOCC2)c2ncccc12,–,inactive: -2.64%
COc1ccc(Cn2c(=O)oc3ccc(C)cc32)cc1OC,active: 18.4 µM,–
COC(=O)C(O)(c1ccc(N(C)C)cc1)C(F)(F)F (configuration not stated),–,inactive: 0.333%
CN1CCC(N(C)c2ncnc3ccc(Br)cc23)CC1,"inconclusive: 23.1 µM [inhibitor, single point]",–
